Measured values published in PubChem BioAssay AID1508623 (National Center for Advancing Translational Sciences (NCATS), 2021).
Out of some 48,000 compounds screened, about 450 (0.94%) were called active. The shares of active, inactive and inconclusive entries below differ from those in the screen. Calls follow the shape of the dose curve; as a rule, active = well fitted inhibition curve with a large enough effect; inconclusive = small, poorly fitted or top-dose-only effect; inactive = no such curve, though single readings can be large or run the other way. Potencies beside an inconclusive call are fits to weak or partial responses and may not hold up.

Test: Primary qHTS for Identification of Small Molecule Inhibitors of Huntingtin Promoter Activity; also: nearly all actives have a fitted effect of over 50% in size
Conditions: HEK293 HTT promoter firefly luciferase reporter (activity 0% = vehicle and -100% = no light), 24 h; activity change, negative = inhibition: at 57.5 µM (top of the series)
Procedure, shortened: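 Firefly luciferase signal from promoter-reporter HEK293 cells was scaled between vehicle (0%) and zero RLU (-100%). Compounds were tested at final concentrations of up to 57.5 uM over 24 h at 37 degrees C. PTC124 at 50 uM final served as control inhibitor.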
Potency is read from the fitted curve at half-maximal effect; tags tell the direction and shape of the fitted curve.

SMILES | activity change, negative = inhibition | Potency
CCCN(CCC)CCCNC(=O)c1sc2nc3n(c(=O)c2c1C)CCC3 | inactive: 2.94% | –
O=C(c1ccc2c(c1)N(Cc1cccc(Cl)c1)C(=O)c1ccccc1S2(=O)=O)N1CCN(Cc2ccccc2)CC1 | – | inconclusive: 15.8 µM [inhibitor, partial curve, poor fit]
COc1ccc(OC)c(NS(=O)(=O)c2ccc3c(c2)CCCN3C(=O)C2CCC2)c1 | – | inconclusive: 31.6 µM [inhibitor, partial curve, poor fit]
Cc1ccc(S(=O)(=O)Nc2ccc3c(c2)CCCN3C(=O)c2cccs2)cc1C | – | inconclusive: 35.5 µM [inhibitor, single point]
O=C(Nc1c(C(=O)N2CCN(c3ccccc3F)CC2)oc2ccccc12)c1ccc(Br)o1 | – | inconclusive: 20 µM [inhibitor, single point]
Cn1c(=O)oc2cc(S(=O)(=O)N3CCCC(C(=O)N4CCN(c5ccc(F)cc5)CC4)C3)ccc21 (stereo not drawn) | – | inconclusive: 2.24 µM [inhibitor, single point]
CC(Oc1ccc(Br)cc1)C(=O)N(Cc1nc(-c2ccccc2)no1)C(C)C (stereo not drawn) | – | inconclusive: 28.2 µM [inhibitor, single point]
O=C(NCCCN1CCN(c2ccccc2)CC1)c1ccc2nc(CCc3ccccc3)oc2c1 | – | inconclusive: 25.1 µM [inhibitor, single point]
CSc1cccc(NC(=O)C2CCCN(S(=O)(=O)c3ccc4c(c3)CCCN4C(C)=O)C2)c1 (stereo not drawn) | – | inconclusive: 15.8 µM [inhibitor, partial curve, poor fit]
COc1ccc(S(=O)(=O)N2c3ccc(Cl)cc3[C@@](O)(c3ccccc3Cl)[C@H]2C(=O)N2CCC[C@@H]2C(N)=O)cc1OC | inactive: -12.8% | –
O=C(c1ccc(F)c(F)c1Nc1ccc(I)cc1F)N1CC(O)([C@H]2CCCCN2)C1 | – | inconclusive: 27.3 µM [inhibitor, partial curve, poor fit]
COc1cc(-c2cc(OC)c3c(C)oc(C)c3c(=O)c2)ccc1OC(=O)c1ccccc1C | – | inconclusive: 39.8 µM [inhibitor, single point]
Cc1cc(C)c2c(-n3cccc3)c(C(=O)NCCc3ccc(Cl)cc3)sc2n1 | – | inconclusive: 7.94 µM [inhibitor, partial curve, poor fit]
Cc1cc(OCCCSc2nc(-c3ccc(C(C)(C)C)cc3)nc3cc(=O)[nH]n23)ccc1Cl | inactive: -13% | –
COc1ccc(NS(=O)(=O)c2ccc(NC(=O)N3CCCC3)cc2)cc1 | – | inconclusive: 22.4 µM [inhibitor, partial curve, poor fit]
COc1ccc2c(c1)c(=O)c(S(=O)(=O)c1ccc(C)c(C)c1)cn2CC(=O)Nc1ccccc1 | – | inconclusive: 22.4 µM [inhibitor, partial curve, poor fit]
COc1ccc(Cl)cc1NC(=O)CN(c1cc(C)cc(C)c1)S(=O)(=O)c1c(C)n[nH]c1C | – | inconclusive: 35.5 µM [inhibitor, single point]
CCc1ccc(NC(=O)c2cc3c(=O)n(Cc4cccs4)ccc3nc2C)cc1 | – | inconclusive: 15.8 µM [inhibitor, partial curve]
O=S(=O)(c1ccccc1)N1CCC(c2ccncc2)CC1 | – | inconclusive: 39.8 µM [inhibitor, single point]
O=C1COc2cc(S(=O)(=O)CCC(=O)N3CCN(c4cccc(Cl)c4)CC3)c(Cl)cc2N1 | – | inconclusive: 39.8 µM [inhibitor, single point]

SMILES | activity change, negative = inhibition | Potency
Cc1ccc(-n2ncc3c(NC4CCCCC4)ncnc32)cc1 | – | inconclusive: 5.01 µM [inhibitor, partial curve, poor fit]
Cc1nc(N2CCCC2)c2c(C(=O)N3CCN(c4cccc(C)c4C)CC3)c(C)oc2n1 | – | inconclusive: 39.8 µM [inhibitor, single point]
CN(CC(=O)Nc1ccccc1Cl)S(=O)(=O)c1ccc(C(=O)N2CCOCC2)s1 | – | inconclusive: 22.4 µM [inhibitor, single point]
O=C(Cc1ccccc1)N(Cc1cccnc1)c1nc2ccc(F)cc2s1 | – | inconclusive: 39.8 µM [inhibitor, single point]
Cc1ccccc1-n1c(SCc2ccc(Cl)cc2)nc2[nH]ncc2c1=O | – | inconclusive: 39.8 µM [inhibitor, single point]
CCOc1ccc(CNC(=O)C2CCCN(S(=O)(=O)c3ccc4c(ccn4C)c3)C2)cc1 (stereo not drawn) | – | inconclusive: 28.2 µM [inhibitor, partial curve]
CC(C)(C)c1ccc(-c2nc(SCCCOc3ccccc3)n3[nH]c(=O)cc3n2)cc1 | inactive: -26.9% | –
CCCCc1ccc(NC(=O)c2ccc(=O)n(Cc3cccc(C)c3)c2)cc1 | – | inconclusive: 31.6 µM [inhibitor, single point]
COc1ccc(-c2nc(C)c(CCNS(=O)(=O)c3cc(C)c(C)cc3C)s2)cc1 | – | inconclusive: 31.6 µM [inhibitor, single point]
CCSc1ncc(Cl)c(C(=O)Nc2ccc(S(=O)(=O)N3CCCCC3)cc2)n1 | – | inconclusive: 15.8 µM [inhibitor, partial curve, poor fit]
COc1ccc(Cl)cc1NS(=O)(=O)c1ccc2c(c1)NC(=O)CC(=O)N2 | inactive: -3.09% | –
Cc1ccc(-c2c(C)n3c4c(=O)n(C)c(=O)n(C)c4nc3n2CCO)cc1 | – | active: 2 µM
CC(=O)N1CCc2c(sc3c2c(=O)n(CCc2ccccc2)c(=O)n3Cc2ccc(Cl)cc2)C1 | – | inconclusive: 25.1 µM [inhibitor, single point]
CCOCCCNc1ncnc2c1cnn2-c1ccc(C)c(C)c1 | inactive: 10% | –
Cc1cc2c(cc1S(=O)(=O)N1CCCCC1)OCC(=O)N2 | – | inconclusive: 14.1 µM [inhibitor, partial curve]
CC(C)(C)c1ccc(S(=O)(=O)N2CCN(Cc3noc(CCC(=O)N4CCCCC4)n3)CC2)cc1 | – | inconclusive: 39.8 µM [inhibitor, single point]
COc1ccc(-c2nnc(SCC(=O)Nc3ccc(C(C)C)cc3)nc2-c2ccc(OC)c(OC)c2)cc1OC | – | inconclusive: 39.8 µM [inhibitor, single point]
COc1cccc(C(=O)Nc2ccc(-c3cc(C(F)(F)F)nn3-c3ccccc3)cc2)c1 | – | inconclusive: 15.8 µM [inhibitor, partial curve, poor fit]
CCOC(=O)C1CCCN(C(=O)c2cc3c(=O)[nH]c4ccc(C)cc4c3s2)C1 (stereo not drawn) | inactive: -29.9% | –
CCC(C(=O)Nc1c(C)cc(C)cc1C)n1c(=O)c(-c2ccccc2NC(C)=O)nc2ccccc21 (stereo not drawn) | inactive: -9.47% | –

SMILES | activity change, negative = inhibition | Potency
CCN(CCCNC(=O)CN1N=C(c2ccc(OC)cc2)CCC1=O)c1cccc(C)c1 | – | inconclusive: 22.4 µM [inhibitor, partial curve, poor fit]
COc1cccc(Nc2sc(C(=O)c3ccc(F)cc3)c(N)c2C(=O)NCc2ccc(Cl)cc2)c1 | – | inconclusive: 39.8 µM [inhibitor, single point]
COc1cc2nccc(Oc3ccc(NC(=O)NC4CC4)c(Cl)c3)c2cc1C(N)=O | – | inconclusive: 7.69 µM [inhibitor, partial curve, poor fit]
COc1ccc(-c2ccc(NS(=O)(=O)c3ccc(C(C)=O)cc3)cc2)nn1 | – | inconclusive: 17.8 µM [inhibitor, partial curve, poor fit]
Cc1cccc(N2CCN(C(=O)c3cccc(-n4c(C)nc5cccnc54)c3)CC2)c1C | – | inconclusive: 1.78 µM [inhibitor, full curve]
CC(C)c1ccc(CN(Cc2ccco2)c2cnc(S(C)(=O)=O)nc2C(=O)Nc2ccc(F)cc2)cc1 | – | inconclusive: 35.5 µM [inhibitor, partial curve, poor fit]
Cc1nnc(N2CCC(C(=O)NCCc3ccccc3Cl)CC2)c2nn(-c3ccccc3)c(C)c12 | – | inconclusive: 39.8 µM [inhibitor, partial curve, poor fit]
CCCCN(C)C(=O)C1CCCN(c2ncnc3onc(C)c23)C1 (stereo not drawn) | – | active: 1.78 µM
O=C(c1ccc2c(=O)n(CCc3ccccc3)c(=O)[nH]c2c1)N1CCN(c2ccc(F)cc2)CC1 | – | inconclusive: 8.91 µM [inhibitor, full curve, poor fit]
Cc1ccc(/C=C/c2onc(C)c2S(=O)(=O)N2CCC(C(=O)N3CCC(N(C)C(C)C)CC3)CC2)cc1 | inactive: -21.4% | –
O=C(Nc1cccc(Cl)c1)c1cnc2sc(N3CCCC3)nn2c1=O | – | inconclusive: 11.2 µM [inhibitor, partial curve, poor fit]
CN1C(=O)Cc2cc(S(=O)(=O)N3CCN(c4ccccc4F)CC3)ccc21 | – | inconclusive: 15.8 µM [inhibitor, partial curve, poor fit]
CC(C)c1ccc(C2=CC(c3ccc(C(C)C)cc3)n3nnnc3N2)cc1 (stereo not drawn) | inactive: -11.6% | –
CCc1nnc(NC(=O)CSc2nccn2-c2ccc(OC)cc2)s1 | – | inconclusive: 31.6 µM [inhibitor, single point]
Cc1nc(C)c(-c2ccc(SCC(=O)Nc3ccc(Br)cc3)nn2)s1 | – | inconclusive: 22.4 µM [inhibitor, partial curve, poor fit]
Cc1ccc(C)c(CN2C(=O)c3ccccc3S(=O)(=O)c3ccc(C(=O)N(C)C4CCCCC4)cc32)c1 | – | inconclusive: 28.2 µM [inhibitor, partial curve]
Cc1cnc(-c2cc(N3CCN(C(=O)CCS(C)(=O)=O)CC3)ncc2Cl)c(C)c1 | inactive: -9.27% | –
CC(C)(C)c1ccc(NC(=O)C2CCCN(c3cnccn3)C2)cc1 (stereo not drawn) | inactive: -8.31% | –
